The values that follow come from PubChem BioAssay AID463173 (ICCB-Longwood Screening Facility, Harvard Medical School, 2010).

Among all 52,000 compounds or so, about 1,700 (3.3%) were called active. Rule as the data show it: active = survival mostly below about 52% (no sharp cut-off); inactive = mostly above about 56%. This is one part of the list.

The subject of the test is Wild type. The test can be described thus: S. aureus survival, RN4220 and DeltatarO strains – OD600, teichoic acid synthesis inhibitors, primary screen (AID 463173). As to conditions: S. aureus RN4220 wild type/DeltatarO growth, OD600, 18 h, stronger effect = lower value, screened at 18.75 µg/mL (by protocol).
Take `CC1CCN(S(=O)(=O)c2ccc3nc(N4CCN(c5ccccc5F)CC4)ccc3c2)CC1`: the survival was inactive: 99%. For the compound `COc1ccc(/C=C(\C#N)c2nc(-c3cc4ccccc4oc3=O)cs2)cc1OC`, the survival was inactive: 70%. For `O=C(/C=C/c1ccccc1)Nc1cc(-c2nc3ccccc3o2)ccc1Cl`, the survival was inactive: 74%. As for `FC(F)(F)c1cccc(N2CCN(Cc3nnc(-c4ccccc4)o3)CC2)c1`, the figure is inactive: 43%; as for `COC(=O)c1ccc(N2C(=O)c3ccc(N)cc3C2=O)cc1`, inactive: 109%; as for `COc1cc(C)ccc1OCCSc1nnc(-c2cccs2)o1`, inactive: 65%. Turning to `CCCN(CCC)CCCNC(=O)c1nn(C)c2c1CS(=O)(=O)c1ccccc1-2`, the survival is inactive: 109%. In the case of `CC(=O)Nc1nonc1-c1nnc(SCc2cccc(Br)c2)n1C` it was inactive: 115%; in that of `CCOc1ccccc1CNC(=O)c1ccc(Cn2c(=O)c3cccn3c3cccnc32)cc1`, inactive: 80%.

As to `CC(C)c1ccc(-c2noc(SCC(=O)N3CCCCC3)n2)cc1`, the survival was inactive: 59%. As to `CCc1cccc(C)c1NC(=O)C(CC)Sc1nc2ccncc2[nH]1` (stereo not drawn), the survival was inactive: 122%.

Take `CCOc1cccc2sc(NC(=O)c3ccc(S(=O)(=O)N4CCc5ccccc54)cc3)nc12`: the survival is inactive: 73%. In the case of `Cc1ccc(NC(=O)N2CCc3c(sc4c3CCCC4)C2c2ccccc2)cc1F` (stereo not drawn) it was inactive: 81%; in that of `CSc1ncc(C(=O)NCc2ccccc2Cl)c(C(F)(F)F)n1`, inactive: 70%; in that of `COc1ccc(CN2CCN(c3ncnc4sc5c(c34)CCCC5)CC2)cc1F`, inactive: 39%. In the case of `CCCN1CCN(CC2=C(C(=O)OCC)C(c3cccc(OC)c3OC)NC(=O)N2)CC1` (stereo not drawn) it was inactive: 76%; in that of `CCCCc1nn2c(=O)cc(COC(=O)c3ccc(NC(=O)c4cccc(OC)c4)cc3)nc2s1`, inactive: 135%.

As for `CCCCN(C)C(=O)c1ccc2c(c1)N(Cc1cccc(Cl)c1)C(=O)c1ccccc1S2=O` (stereo not drawn), the survival was inactive: 124%.

Consider `CCOC(=O)CSc1nc2cc3c(cc2c(=O)n1CCCCCC(=O)NCc1ccc2c(c1)OCO2)OCO3`, for which the survival is inactive: 81%. In the case of `COc1cc(C2Nc3ccccc3-c3nnc(SCc4ccc(Cl)cc4)nc3O2)ccc1OCC(=O)O` (stereo not drawn) it was inactive: 68%; in that of `Cc1ccc2c(CC(=O)Nc3ccc(S(=O)(=O)Nc4nc(C)cc(C)n4)cc3)coc2c1`, inactive: 76%. In the case of `Cc1cc(C)cc(NC(=O)N2CCN(C)c3ncccc32)c1` it was inactive: 75%.

Take `Cn1c(=O)cc(OCC(=O)N2CCN(c3ccccc3F)CC2)c2ccccc21`: the survival was inactive: 82%. Turning to `CCOc1ccc(CNC(=O)CN2C(=O)CSc3ccc(S(=O)(=O)N4CCOCC4)cc32)cc1OC`, the survival is inactive: 69%. In the case of `COc1ccc(-c2noc(-c3cc(C(C)C)[nH]n3)n2)cc1` it was inactive: 65%; in that of `CCN1CCc2c(sc(NC(=O)CSc3ccccc3)c2-c2nc3ccccc3s2)C1`, active: -6%; in that of `Cc1cc2oc(C(=O)N(Cc3ccc(N(C)C)cc3)CC3CCCO3)c(C)c2cc1C` (stereo not drawn), inactive: 77%. In the case of `O=C(CCCCn1c(=O)c2ccccc2n(Cc2ccccc2F)c1=O)NCc1ccc2c(c1)OCO2` it was inactive: 137%. As for `O=C(NCc1ccc(Cl)cc1)C1(c2cccs2)CCOCC1`, the figure is inactive: 71%; as for `O=C(Nc1ccc(NC(=O)c2cccs2)cc1)c1ccc(Cl)cc1`, inactive: 81%; as for `COC(=O)c1ccccc1NC(=O)Cn1ncc2c(C)n(Cc3ccc(F)cc3)c(C)c2c1=O`, inactive: 67%. As for `CC(=O)c1cccc(Nc2cc(C)nc3nc(-c4ccccc4C)nn23)c1`, the survival is inactive: 102%.

For `Cc1ccc(CNC(=O)C2CCCN(c3nc4c(C)cc(C)cc4s3)C2)cc1` (stereo not drawn), the survival is inactive: 76%. In the case of `Cc1ccc(OCCSc2nc3ccccc3n2CC(=O)N2CCCCC2)cc1C` it was inactive: 72%. In the case of `COC(=O)c1ccccc1NC(=O)CCn1nc(C)c2c(C)n(-c3ccccc3)nc2c1=O` it was inactive: 59%; in that of `O=C(COc1ccccc1)NCCc1csc(-c2ccc(F)cc2)n1`, inactive: 71%; in that of `Clc1cc(Cl)c2nsnc2c1`, inactive: 108%. In the case of `CN(C(=O)Cn1c(=O)n(Cc2ccc(C(=O)NCc3ccc4c(c3)OCO4)cc2)c(=O)c2ccccc21)c1ccccc1` it was inactive: 96%; in that of `C=CCN1C(=O)C(C(=O)Nc2ccc(C)cc2)C2CC1(C)Oc1ccccc12` (stereo not drawn), inactive: 116%; in that of `CCCCOc1ccc(Cn2c(=O)oc3ccccc32)cc1`, inactive: 113%. On to `O=C(Cn1cc(S(=O)(=O)Cc2cccc(Cl)c2)c2ccccc21)Nc1ccc(F)c(Cl)c1`, for which the survival is inactive: 85%. As for `COc1ccc(CNC(=O)CCc2nc3cccnc3n2Cc2ccc(OC)cc2)cc1`, the figure is inactive: 78%. As for `Cc1cc(C(F)(F)F)c(C#N)c(SCC(=O)C(C)(C)C)n1`, the figure is inactive: 103%; as for `Cc1ccccc1Cc1c(C)nc2c(-c3ccccc3)c(C)[nH]n2c1=O`, active: -13%; as for `CCC(C)c1ccc(NC(=O)CSc2nncn2N)cc1` (stereo not drawn), inactive: 109%. Turning to `Cc1ccc(NC(=O)Cn2c(=O)n(CCc3ccccc3)c(=O)c3sc4ccccc4c32)cc1C`, the survival was inactive: 88%. As for `COC(=O)c1ccc(NC(=O)c2nn(C)c3c2COc2ccccc2-3)cc1`, the figure is inactive: 96%; as for `CCOc1ccc(OCC(=O)NCCS(=O)(=O)N2CCN(c3ccc(OC)cc3)CC2)cc1`, inactive: 70%; as for `COc1ccccc1CNS(=O)(=O)c1cc(-c2cc(C)no2)ccc1C`, inactive: 124%.

`O=C(NCc1cccc(Cl)c1)c1oc(=O)c2ccccc2c1-c1ccccc1`: the survival was inactive: 90%. As for `Cc1nn(CCCC(=O)NCCc2ccc(Cl)cc2)c(=O)c2nn(-c3ccccc3)c(C)c12`, the survival is inactive: 77%. As for `Cc1ccc(-c2cc(NC(=O)COc3c(C)cc(C)cc3C)on2)cc1`, the figure is inactive: 78%; as for `O=C(NCc1ccccc1F)c1cccc(NC(=O)N2CCSc3ncccc32)c1`, inactive: 87%. In the case of `CCn1c(=O)c(C(=O)Nc2cc(OC)c(OC)c(OC)c2)nc2ccccc21` it was inactive: 76%; in that of `COc1ccc(C2CC(=O)c3cc(-c4nc(-c5cccc([N+](=O)[O-])c5)cs4)c(=O)n(-c4ccccc4C)c3C2)cc1` (stereo not drawn), inactive: 134%. As for `CCOCCc1nn2c(=O)cc(COC(=O)c3ccc(NC(=O)c4ccc(F)cc4)cc3)nc2s1`, the figure is active: 0%.

Turning to `CCc1ccc(C2CC(=O)N(c3cccc(C(F)(F)F)c3)C3=C2C(=O)OC3)cc1` (stereo not drawn), the survival was inactive: 73%. In the case of `COc1ccccc1C(=O)NCCc1csc(-c2ccc(C(F)(F)F)cc2)n1` it was inactive: 131%.

For `COc1cc(NC(=O)Cn2c(=O)n(CC3CCCO3)c(=O)c3cc(OC)c(OC)cc32)cc(OC)c1` (stereo not drawn), the survival is inactive: 67%. Consider `Cc1ccc(C)c(NC2=C(c3ccc(C(F)(F)F)cc3)C(=O)c3ccccc32)c1`, for which the survival was inactive: 67%. As for `O=C(NCc1ccc2c(c1)OCO2)c1cccnc1`, the figure is inactive: 101%. As for `CC(=O)N1CCc2cc(CNC(=O)Nc3ccccc3C(F)(F)F)ccc21`, the figure is inactive: 71%; as for `OC1N(CN2CCN(c3ccccc3F)CC2)c2ccccc2C12OCCCO2` (stereo not drawn), inactive: 104%.

Regarding `COc1ccc2c(CNC3CCC(C)CC3)c(C(=O)O)n(Cc3ccccc3)c2c1` (stereo not drawn), the survival is inactive: 89%. On to `Cc1cccc(Cn2nnc3c(=O)[nH]c(C4CCCN(C(=O)c5ccc(C(C)(C)C)cc5)C4)nc32)c1` (stereo not drawn), for which the survival was inactive: 23%. As for `CCCN1CCCc2cc(CN(CCCN3CCOCC3)C(=O)Nc3ccc(OCC)cc3)ccc21`, the figure is inactive: 64%; as for `Cc1ccc(-c2cn3nc(N4CCC(C(=O)Nc5ccccc5C)CC4)sc3n2)cc1`, inactive: 77%; as for `CC(C(=O)NCc1ccco1)N(C(=O)c1ccc(Cl)nc1)C1CCCCC1` (stereo not drawn), inactive: 113%. `CCOc1ccccc1CNC(=O)C1CCN(Cc2cc3ccccc3n2Cc2ccccc2)CC1`: the survival is inactive: 75%. As for `Cn1c2ccccc2c2c(C(=O)N3CCN(c4cccc(C(F)(F)F)c4)CC3)cn(C3CCCCC3)c(=O)c21`, the figure is inactive: 89%; as for `CCNC(=S)NCc1ccc2c(c1)OCO2`, inactive: 107%; as for `CCC(C(=O)Nc1cc(OC)ccc1OC)n1nc(-c2ccccc2)c2c(c1=O)CCCC2` (stereo not drawn), inactive: 85%. For the compound `CN(C)S(=O)(=O)N(CC(=O)NCCSc1ccc(Cl)cc1)c1ccccc1`, the survival is inactive: 66%.

Consider `c1ccc2c(c1)nc1n2CCN1CCNC1CCCCC1`, for which the survival was inactive: 124%. As for `NCC(O)CN1CCN(Cc2ccccc2)CC1` (stereo not drawn), the figure is inactive: 105%.

Consider `Cc1ccc2oc(C(=O)Nc3ccc(S(=O)(=O)Nc4ncccn4)cc3)cc(=O)c2c1`, for which the survival was inactive: 97%. As for `O=C(COCc1cc(-c2ccc3c(c2)OCO3)on1)N1CCN(c2cccc(C(F)(F)F)c2)CC1`, the figure is inactive: 90%; as for `Cc1cc(C)c2oc(C(=O)Nc3nc4ccc(Cl)cc4s3)cc(=O)c2c1`, inactive: 81%; as for `Cc1ccc(-n2ccnc(NCc3cccs3)c2=O)cc1C`, inactive: 131%. On to `Cc1cccc(Cn2c(SCc3ccc(C(=O)NCc4ccccc4F)cc3)nc3cccnc32)c1`, for which the survival is inactive: 88%. In the case of `CN1C(C(=O)NC(C)(C)C)=CC(c2ccc3c(c2)OCO3)=NS1(=O)=O` it was inactive: 84%; in that of `COc1cccc(NS(=O)(=O)c2ccc3[nH]cc(C(=O)NCCc4ccc(C)cc4)c(=O)c3c2)c1`, inactive: 124%; in that of `CCCS(=O)(=O)c1nc(S(=O)(=O)c2ccc(C)cc2)c(NC(C)c2ccccc2)s1` (stereo not drawn), inactive: 129%. As for `O=C(Nc1ccc2[nH]ncc2c1)/C(=C/c1ccco1)NC(=O)c1ccccc1`, the figure is inactive: 111%; as for `COc1ccc2oc(=O)c(-c3nc4ccc(C)cc4[nH]3)cc2c1`, inactive: 94%; as for `O=C(COc1ccccc1F)Nc1ccc2nc(SCc3ccccc3)sc2c1`, inactive: 88%. As for `CCC(=O)N1CCc2cc(S(=O)(=O)NCCC(=O)Nc3cccc(SC)c3)ccc21`, the figure is inactive: 79%.

With `CCOC(=O)c1cc(-c2ccc(F)cc2)n(CCC(=O)NCc2ccc(C)cc2)c1C`, the survival was inactive: 73%.
